# From PubChem BioAssay AID1671194 (National Center for Advancing Translational Sciences (NCATS), 2021)
# The campaign covered roughly 140,000 compounds. About 240 (0.17%) were called active. Inconclusive means that the source gave no clear call. Such entries were picked first, then a sample of the others. Calls follow the shape of the dose curve; as a rule, active = well fitted inhibition curve with a large enough effect; inconclusive = small, poorly fitted or top-dose-only effect; inactive = no such curve, though single readings can be large or run the other way. Potencies beside an inconclusive call are fits to weak or partial responses and may not hold up.
# Assay: Primary qHTS assay for inhibitors of alpha-synuclein gene (SNCA) expression; also: nearly all actives have a fitted effect of over 45% in size;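 as to activity change, negative = inhibition: plate controls were DMSO cells for no effect and cell-free wells for full effect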
# Conditions: HEK-293 SNCA-luciferase knock-in, luminescence, 24 h; activity change, negative = inhibition: at 57.2 µM (top of the series) unless noted
# Potency is read from the fitted curve at half-maximal effect; tags tell the direction and shape of the fitted curve.
Structure (SMILES),Potency,"activity change, negative = inhibition"
CCOC(=O)C1=C(CN2CCN(c3ccc(C)cc3C)CC2)NC(=O)NC1c1ccc(OC)cc1 (stereo unspecified),"inconclusive: 39.8 µM [inhibitor, single point]",
CCOc1ccc(NC(=O)c2c(NCc3cccs3)sc3c2CCC(C)C3)cc1 (stereo unspecified),"inconclusive: 22.4 µM [inhibitor, single point]",
CC[n+]1c(/C=C/C=C2/N(C)c3ccccc3C2(C)C)sc2ccccc21,"inconclusive: 0.708 µM [inhibitor, full curve, poor fit]",
N#Cc1cc(CN2CCCC(C(=O)Nc3cccc(-c4ccc(F)cc4)c3)C2)c[nH]1 (stereo unspecified),"inconclusive: 39.8 µM [inhibitor, single point]",
CCOc1ccccc1C1NC(=O)N(CC(=O)Nc2ccc3c(c2)CCC3)C2=C1C(=O)OC2 (stereo unspecified),"inconclusive: 2 µM [inhibitor, partial curve, poor fit]",
CCC(Sc1nc2ncccc2[nH]1)C(=O)Nc1cccc(OC)c1 (stereo unspecified),"inconclusive: 39.8 µM [inhibitor, single point]",
COCCOc1ccc(-c2nc(C)ccc2OC)cc1,,inactive: -16.8%
COc1ccc(-c2noc(N3CCC(C(=O)Nc4ccc(F)cc4Cl)CC3)n2)cc1,"inconclusive: 39.8 µM [inhibitor, single point]",
CCCNC(=O)Cn1ccn2nc(-c3ccc(F)cc3)c(CO)c2c1=O,"inconclusive: 7.94 µM [inhibitor, partial curve, poor fit]",
COc1ccc(C(=O)NCCn2cc(SCC(=O)Nc3ccc(C)cc3)c3ccccc32)cc1,"inconclusive: 39.8 µM [inhibitor, single point]",
O=C(c1ccsc1)N1CC(c2noc(C3CCCN3CC3CC3)n2)C1 (stereo unspecified),"inconclusive: 25.1 µM [inhibitor, single point]",
O=C(N[C@H]1CCN2C(=O)c3cc(-c4ccc(Cl)cc4)ccc3NC(=O)[C@@H]2C1)c1ccncc1,"inconclusive: 10 µM [inhibitor, partial curve, poor fit]",
CCc1ccc(CNC(=O)c2cc3c(N4CCSCC4)nc(C)cn3n2)cc1,,inactive: -24.4%
O=C(NC[C@H]1Cn2c(-c3ccc(F)cc3)cnc2CO1)c1ccc(Cl)cc1,,inactive: -28.3% [at 87.6 µM]
CNC(=O)CCn1ncc2cc(OCc3ccccc3-c3ccc(F)cc3OC)ccc21,,inactive: -34.7% [at 87.6 µM]
O=C(NCCn1ccn2nc(-c3ccc(F)cc3)cc2c1=O)c1cccs1,,inactive: 74.5%
COc1ccc(C2(C(=O)NC3CCCc4c3[nH]c3c(Cl)cccc43)CCOCC2)cc1 (stereo unspecified),"inconclusive: 12.6 µM [inhibitor, partial curve]",
Cc1ccc(Cn2c(CNS(=O)(=O)c3cccc([N+](=O)[O-])c3)nc3cccnc32)cc1,"inconclusive: 7.08 µM [inhibitor, single point]",
COc1ccc(-c2cc(C)no2)cc1S(=O)(=O)Nc1c(C)cc(C)cc1C,"inconclusive: 39.8 µM [inhibitor, single point]",
CCc1ccc(CNC(=O)C(C)n2ccc3cc(S(=O)(=O)N4CCCCCC4)ccc32)cc1 (stereo unspecified),"inconclusive: 14.1 µM [inhibitor, single point]",
CC1=C[C@@H](CNCc2ccccn2)[C@H](C(C)C)C[C@H]1Cc1nnc(-c2ccccc2)o1,"inconclusive: 56.2 µM [inhibitor, single point]",

Structure (SMILES),Potency,"activity change, negative = inhibition"
Cc1ccc(NC(=O)C2CCN(S(=O)(=O)c3ccc4[nH]c5c(c4c3)CCCCC5)CC2)cc1,"inconclusive: 7.08 µM [inhibitor, single point]",
COc1ccccc1Cn1cc(C(=O)c2ccc(Cl)cc2)c(=O)c2ccccc21,"inconclusive: 39.8 µM [inhibitor, single point]",
O=C(c1cc(Cc2n[nH]c(=O)c3ccccc23)ccc1F)N1CCN(C(=O)C2CC2)CC1,"inconclusive: 17.1 µM [inhibitor, partial curve, poor fit]",
CCC(=O)N1CCc2ccc(C(=O)N3CCCCC3)cc21,"inconclusive: 12.6 µM [inhibitor, single point]",
COc1ccccc1Nc1ccnc(N2CCN(C(=O)c3ccc(C)cc3)CC2)n1,,inactive: -5.24%
COc1ccc(CNC(=O)C2CCN(c3nccc(Nc4ccccc4OC)n3)CC2)cc1,,inactive: -10.2%
Cc1ccc(-n2ncc(C(=O)NCc3cccs3)c2C2CCN(C(=O)OC(C)(C)C)CC2)cc1,"inconclusive: 31.6 µM [inhibitor, single point]",
COc1ccc(CN2CCc3oc(C)c(C(=O)N4CCCCCC4)c3C2)cc1,,inactive: -4.26%
O=C(O)c1ccc2c(c1)n(Cc1ccccc1)c(=O)c1ccnn12,"inconclusive: 0.631 µM [inhibitor, full curve]",
COc1cccc(-c2cc3c(=O)n(CCNC(=O)C4CCCCC4)ccn3n2)c1,,inactive: 75.4%
COc1cccc(CNC(=O)c2cc(-c3c(C)cccc3C)nc3c2cnn3C)c1,,inactive: -27.9%
O=C1COc2ccc(OCc3cncs3)nc2CN1Cc1ccc(F)cc1,,inactive: -22.6% [at 87.6 µM]
CCOc1ccccc1CN1CCC2(CCN(Cc3cncs3)CC2)Oc2ccccc21,"inconclusive: 17.8 µM [inhibitor, partial curve, poor fit]",
Cn1nccc1C(=O)N1CCCN(S(C)(=O)=O)c2ccccc21,,inactive: -2.88%
Cc1cc2[nH]c(=O)c(=O)[nH]c2cc1S(=O)(=O)N1CCN(c2cccc(C(F)(F)F)c2)CC1,"inconclusive: 7.08 µM [inhibitor, single point]",
CCCCN(CC)CCNC(=O)CCn1cnc2onc(-c3ccc(F)cc3)c2c1=O,"inconclusive: 28.2 µM [inhibitor, single point]",
O=C(Cn1c(=O)nc(-c2ccccc2)c2ccccc21)NCCc1ccc(Cl)cc1,"inconclusive: 2.82 µM [inhibitor, single point]",
Cc1ccc(CNC(=O)CC2=C3CCCCC3NC2=O)cc1 (stereo unspecified),"inconclusive: 8.91 µM [inhibitor, single point]",
CCn1c(=O)c2cc(C(=O)N3CCN(c4cccc(OC)c4)CC3)sc2c2ccccc21,"inconclusive: 10 µM [inhibitor, partial curve, poor fit]",
N#Cc1ccc(OCc2nc3c(n2Cc2ccccc2)C(=O)N(CC2CC2)CCN3)cc1,"inconclusive: 7.08 µM [inhibitor, partial curve, poor fit]",
